Paper PMC4336329 (PLoS ONE, 2015)
Screen size: about 310,000 compounds; about 14,000 (4.5%) showed an effect of 50% or more. The effect is printed as a negative number. The list shows a part of the results.

target: human ether-à-go-go-related gene (hERG) potassium channel (human, UniProt Q12809); assay: primary screen, population patch clamp on CHO cells stably expressing hERG
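Also: peak tail current of the secondary pulse compared with the same well before compound.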

Chain of human ether-à-go-go-related gene (hERG) potassium channel (Q12809 whole entry, looked up): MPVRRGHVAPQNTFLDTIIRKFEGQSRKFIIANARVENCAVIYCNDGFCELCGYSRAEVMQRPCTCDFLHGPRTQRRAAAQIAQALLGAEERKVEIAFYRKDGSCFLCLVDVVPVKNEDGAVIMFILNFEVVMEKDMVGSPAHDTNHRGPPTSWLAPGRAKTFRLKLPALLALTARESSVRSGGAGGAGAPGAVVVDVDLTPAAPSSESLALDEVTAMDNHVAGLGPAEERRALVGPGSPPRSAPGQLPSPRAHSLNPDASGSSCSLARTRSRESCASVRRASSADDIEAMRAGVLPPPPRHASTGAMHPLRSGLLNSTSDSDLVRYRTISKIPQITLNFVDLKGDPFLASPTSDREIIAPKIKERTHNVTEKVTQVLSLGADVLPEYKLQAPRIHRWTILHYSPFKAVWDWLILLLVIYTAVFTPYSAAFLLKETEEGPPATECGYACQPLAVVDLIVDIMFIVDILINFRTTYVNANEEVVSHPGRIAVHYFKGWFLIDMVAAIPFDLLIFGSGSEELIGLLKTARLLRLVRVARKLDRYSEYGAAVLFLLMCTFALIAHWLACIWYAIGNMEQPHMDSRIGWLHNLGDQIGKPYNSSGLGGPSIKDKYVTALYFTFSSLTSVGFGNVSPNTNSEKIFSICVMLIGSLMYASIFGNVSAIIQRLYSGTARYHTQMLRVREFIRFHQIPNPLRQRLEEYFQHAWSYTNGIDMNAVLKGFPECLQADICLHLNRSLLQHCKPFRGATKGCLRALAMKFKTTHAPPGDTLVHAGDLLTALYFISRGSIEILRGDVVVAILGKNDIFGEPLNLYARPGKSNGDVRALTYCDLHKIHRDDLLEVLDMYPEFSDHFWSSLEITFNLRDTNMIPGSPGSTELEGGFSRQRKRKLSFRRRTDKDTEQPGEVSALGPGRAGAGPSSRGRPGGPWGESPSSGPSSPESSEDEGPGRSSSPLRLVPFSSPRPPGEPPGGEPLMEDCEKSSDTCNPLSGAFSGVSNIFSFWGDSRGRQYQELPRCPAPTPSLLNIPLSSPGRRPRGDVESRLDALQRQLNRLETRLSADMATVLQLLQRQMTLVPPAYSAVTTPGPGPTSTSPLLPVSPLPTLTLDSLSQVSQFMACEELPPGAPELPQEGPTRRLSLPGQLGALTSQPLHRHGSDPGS

In order of falling “hERG current change (%, negative = inhibition) at 10uM” value:
1. CCC(Oc1cc(Cl)ccc1Cl)C(=O)NNC(=O)CCC(=O)O (stereo not shown)  42.2%
2. Cc1ccc(C)c(OCCC(=O)NNC(=O)c2ccncc2)c1  29.9%
3. Cc1ccc(SC(CC(=O)c2ccc(F)cc2)C(=O)O)cc1 (stereo not shown)  27.5%
4. O=C(CSc1nc2ccccc2[nH]1)NCCCn1ccnc1  25.2%
5. COc1cc(/C=C2\CCOC2=O)cc(OC)c1OC  23.9%
6. OCC(Br)CBr (stereo not shown)  23%
7. CC(C)C(C)(C#N)NC(=O)CN1C(=O)NC2(CCCc3ccccc32)C1=O (stereo not shown)  22.9%
8. O=C(N/N=C/c1cc([N+](=O)[O-])ccc1O)c1cccc(NC(=O)c2cccc(Cl)c2)c1  20.8%
9. CCOC(=O)N1CCC(NC(=O)c2cc(-c3ccc(OC)cc3)nc3ccccc23)CC1  19%
10. Cc1ccccc1C(=O)NC(=S)NC1CC1  18.7%
11. CCN(CC)C(=O)CC(c1ccc(N(C)C)cc1)c1c(O)cc(OC)cc1OC (stereo not shown)  18.7%
12. Fc1ccccc1Cn1cnc(NC(=S)NCCc2ccccc2)n1  17.9%
13. CCn1nc(C)c(CNC(=O)c2ccc(OC3CCN(Cc4ccccn4)CC3)cc2)c1C  17.3%
14. O=C(CSCC(=O)Nc1nc(-c2ccc3c(c2)OCO3)cs1)Nc1nccs1  16.5%
15. NNC(=O)c1ccc(Cn2cc(Cl)cn2)o1  15.6%
16. CC(Nc1ccccc1)c1ccncc1 (stereo not shown)  15.2%
17. O=S(=O)(O)c1ccc(N=Nc2ccccc2)cc1  14.6%
18. O=S(=O)(Nc1cccc(Oc2cnccn2)c1)c1ccc(F)cc1  14.4%
19. O=C(Cc1cccs1)Nc1nnc(Cc2ccccc2)s1  12.6%
20. O=C(OCCc1cc2ccccc2c(=O)o1)c1cccc(Br)c1  12.5%
21. COC(=O)[C@@H]1C[C@@]2(O)[C@@H](O)[C@@H](O)[C@@H](O)C[C@H]2N1Cc1ccc(C(F)(F)F)cc1  11.3%
22. COc1ccc(S(=O)(=O)N2CCC(c3nc4ccccc4[nH]3)CC2)cc1  10.3%
23. COCCNC(=O)C(c1ccc(O)cc1)N(Cc1ccccc1)C(=O)CCC(=O)Nc1nccs1 (stereo not shown)  9.43%
24. COC(=O)c1ccccc1NC(=O)c1cc2nc(C3CC3)cc(C(F)(F)F)n2n1  9.42%
25. CC(=O)N1CCSc2ccc(S(=O)(=O)Nc3ccc(C)cc3)cc21  8.86%
26. CCNC(=S)Nc1scc(-c2ccccc2)c1C(=O)OCC  8.76%
27. COCC(=O)N(Cc1cc2cc(C)ccc2[nH]c1=O)c1ccc(C)c(C)c1  7.89%
28. C/C(=N\Nc1ccc(S(=O)(=O)N2CCOCC2)cc1[N+](=O)[O-])C(C)C  7.68%
29. COc1ccc(-n2c(SC)nc(O)c(Cc3ccccc3)c2=O)cc1  7.51%
30. CCOC(=O)CNC(=O)c1cc(-c2ccccn2)nc2c(C)c(Cl)ccc12  7.46%
31. CCCCC(C)n1[nH]c(=O)cc1N (stereo not shown)  7.31%
32. O=C(C(F)C(F)(F)F)N1CCN(c2ccccc2)CC1 (stereo not shown)  6.74%
33. Cc1cc(C(=O)O)c(CSCc2cc(C(=O)O)oc2C)o1  6.67%
34. Cc1ncc(CSc2ccc(Cl)cc2)c(CO)c1O  6.34%
35. Cl.N=c1ccn(Cc2ccc([N+](=O)[O-])cc2)cc1  5.42%
36. CCCOc1ccccc1Cn1c(=O)oc2ccc(C)cc21  4.55%
37. COc1ccc(C(=O)Nc2nc3cc4c(cc3s2)OCCO4)c(OC)c1  4.26%
38. CC[C@@]12C(=O)N(c3ccccc3)C(=O)N1[C@H](c1ccc(Br)cc1)[C@@H]1C(=O)N(C(C)(C)C)C(=O)[C@@H]12  4.22%
39. CN(C)CCCNC(=O)c1ccc(CN(c2ccccc2)S(C)(=O)=O)cc1  4.06%
40. Cc1cc(=O)oc(C)c1C(=O)NCCNC(=O)c1c(C)cc(=O)oc1C  3.85%
41. O=C(NCCc1ccccc1)C1CC(=O)N(c2ccc3c(c2)OCCO3)C1 (stereo not shown)  3.8%
42. S=C(Nc1ccc(Cl)c(Cl)c1)NC1CCN(Cc2ccccc2)CC1  3.52%
43. O=S(=O)(c1ccc2c(c1)OCCO2)N1CCC(c2nc3ccccc3[nH]2)CC1  3.43%
44. O=C(O)c1nn(CCOc2ccccc2F)c(=O)c2ccccc12  3.27%
45. CCCN(CCC)CCCNS(=O)(=O)c1cc(Br)cc2c1N(C(C)=O)CC2  3.15%
46. CCN(CC)S(=O)(=O)c1ccc2c(c1)nc(-c1ccccn1)n2C  2.89%
47. COC(=O)CSc1nc(-c2cccs2)ccc1C#N  1.99%
48. CNC(=O)CN(c1cccc2ccccc12)S(C)(=O)=O  1.47%
49. COc1ccc(OCCC(=O)OCc2c(C)noc2C)cc1  0.92%
50. O=C(c1cc(COc2cccc(C(F)(F)F)c2)on1)N1C[C@@H]2CCC[C@H]1C2  0.495%
51. CC1(C)CC(=O)C(/C=N/c2ncccc2C(=O)O)=C(O)C1  0.446%
52. CCCCOC(=O)CCn1[nH]c(=O)c2ccccc2c1=O  0.159%
53. Cc1ccc(NC(=O)c2ccc(=O)[nH]n2)cc1C  -1.5%
54. CSCC(=O)Nc1nc(-c2ccc3c(c2)OCCO3)cs1  -2.09%
55. Cc1ccc(C(=O)C2CCN(CC(=O)Nc3ccc4c(c3)OCCO4)CC2)cc1  -2.3%
56. O=C(c1ccc(S(=O)(=O)N2CCOCC2)cc1)N1CCc2ccccc2C1  -4.25%
57. COc1cccc(-c2cc(=O)c3cc(NC(=O)c4ccccc4)ccc3[nH]2)c1  -4.52%
58. Cc1nn(-c2ccccn2)c2c1C(c1c(F)cccc1Cl)C1=C(N2)c2ccccc2C1=O (stereo not shown)  -4.66%
59. COC(=O)c1ccc2nc(-c3cccc(N)c3)cn2c1  -5.16%
60. O=C(NC1CCCCC1)C(c1ccccc1F)N(Cc1ccco1)C(=O)Cn1nnc2ccccc21 (stereo not shown)  -5.98%
61. COc1ccc(C(=O)Nn2c(C)nc3ccccc3c2=O)cc1[N+](=O)[O-]  -6.08%
62. CCOC(=O)C1(CCOC)CCN(C(=O)c2ccccc2-c2cccc(C)c2)CC1  -7.44%
63. CCCc1nn(C)c2c(=O)[nH]c(-c3cc(S(N)(=O)=O)ccc3OCC)nc12  -7.55%
64. O=C(O)c1cccc(S(=O)(=O)NCC2CCCO2)c1 (stereo not shown)  -8.4%
65. Clc1cc(Cl)cc(C2=NCCC(c3ccccc3)O2)c1 (stereo not shown)  -8.69%
66. COc1ccccc1NC(=O)Cc1noc(CSc2nnc(C(F)(F)F)n2C)n1  -8.97%
67. CCCCn1c(CNC(=O)Cc2ccccc2)nc2ccccc21  -9.43%
68. Cc1occc1C(=O)Nc1cccc(Cn2cccn2)c1  -10.6%
69. Cc1nnc(SCC(=O)Nc2cc(C(C)(C)C)nn2-c2ccccc2)s1  -12.9%
70. N#CCCC1CCCC=C1N(Cc1ccccc1)C(=O)C(Cl)Cl (stereo not shown)  -13.3%
71. COc1ccccc1NC(=O)COC(=O)CCc1ccc(S(=O)(=O)N2CCOCC2)cc1  -14.1%
72. CN(C)S(=O)(=O)c1ccc(Oc2ccc(S(=O)(=O)N(C)C)cc2)cc1  -15.7%
73. CN(C)C=NC(=O)c1cc(C(=O)c2ccc(F)cc2)c[nH]1  -16.2%
74. COc1ccc(C(C(=O)NC2CCCCC2)N(CC2CCCO2)C(=O)CNC(=O)c2ccco2)cc1 (stereo not shown)  -17.3%
75. COC(=O)c1ccc(CNC(=O)C2CCC(=O)N(CCc3ccccc3)C2)cc1 (stereo not shown)  -17.7%
76. Cc1nc2ccccc2c2oc(C(=O)NCC3COc4ccccc4O3)cc12 (stereo not shown)  -18.1%
77. O=C(CN1C(=O)NC2(CCCC2)C1=O)Nc1cc(Cl)ccc1Oc1ccccc1  -19.8%
78. COc1ccccc1NC(=O)CCCC(=O)OC(C)C(=O)c1ccccc1 (stereo not shown)  -24.1%
79. COc1ccc(CCNC(=O)CN(Cc2ccc(Cl)cc2)S(C)(=O)=O)cc1  -25.5%
80. O=C(C1CCN(C2CCN(Cc3ccc4c(c3)CCO4)CC2)CC1)N1CCOCC1  -26.6%
81. CCOC(=O)C1CCN(C(=O)C2CCN(S(=O)(=O)c3cc(Cl)ccc3Cl)CC2)CC1  -30.1%
82. CCOc1ccc(N(CC(=O)Nc2ccccc2C(=O)NCc2ccco2)S(C)(=O)=O)cc1  -36.3%
83. Cc1cccc(NC(=O)CSc2nc3ccccc3nc2N2CCCCC2)c1  -36.5%
84. COc1cccc(-c2cc(C(F)(F)F)nc(-n3cccn3)n2)c1  -36.9%
85. COc1ccc(-c2coc3c(CN4CCCCC4C)c(O)ccc3c2=O)cc1 (stereo not shown)  -39.4%
86. Cn1c(/C=C/c2ccc(Br)cc2)c([N+](=O)[O-])c(=O)n(C)c1=O  -42.6%
87. CCN(CC)S(=O)(=O)c1cc(NC(=O)C2Cc3ccccc3C(=O)O2)ccc1C (stereo not shown)  -44.7%
88. COc1ccccc1NC(=O)C(C)OC(=O)c1ccc(-n2cnnn2)cc1 (stereo not shown)  -87.5%
